# Some of the results follow.
# B1: PhoQ; a variant is named by its letters at X, in order, P23837 (parent)
# chain: MKKLLRLFFPLSLRVRFLLATAAVVLVLSLAYGMVALIGYSVSFDKTTFRLLRGESNLFYTLAKWENNKLHVELPENIDKQSPTMTLIYDENGQLLWAQRDVPWLMKMIQPDWLKSNGFHEIEADVNDTSLLLSGDHSIQQQLQEVREDDDDAEMTHSVAVNVYPATSRMPKLTIVVVDTIPVELKSSYMVWSWFIYVLSANLLLVIPLLWVAAWWSLRPIEALAKEVRELEEHNRELLNPATTRELTSLVRNLNRLLKSERERYDKYRTTLTDLTHSLKTPLXXLQXXLRSLRSEKMSVSDAEPVMLEQISRISQQIGYYLHRASMRGGTLLSRELHPVAPLLDNLTSALNKVYQRKGVNISLDISPEISFVGEQNDFVEVMGNVLDNACKYCLEFVEISARQTDEHLYIVVEDDGPGIPLSKREVIFDRGQRVDTLRPGQGVGLAVAREITEQYEGKIVAGESMLGGARMEVIFGRQHSAPKDE
# Variants of: B1
# Assay: enrichment ratio after two sorts for PhoP signalling (ratio (wild type AVST 3.29)); higher = more functional
# Conditions: with PhoP (E. coli)
row,Variant,enrichment ratio
1,PLPG,≤ 0.25
2,RNDM,≤ 0.25
3,FLYT,≤ 0.25
4,YPLL,≤ 0.25
5,PILP,≤ 0.25
6,GSMC,9.78
7,SEFM,7.47
8,FQAA,≤ 0.25
9,TVII,≤ 0.25
10,WRAH,≤ 0.25
11,QCVS,≤ 0.25
12,LVTA,≤ 0.25
13,RPGH,≤ 0.25
14,EHDI,≤ 0.25
15,WLPG,≤ 0.25
16,GSIC,3.78
17,YCGL,≤ 0.25
18,THFE,≤ 0.25
19,FAYR,≤ 0.25
20,EFML,≤ 0.25
21,RCRS,≤ 0.25
22,HFFH,≤ 0.25
23,IQII,≤ 0.25
24,VSKF,≤ 0.25

row,Variant,enrichment ratio
1,HSIG,≤ 0.25
2,KGRP,≤ 0.25
3,LEAP,≤ 0.25
4,FAHC,≤ 0.25
5,QQDS,6.37
6,KAHV,≤ 0.25
7,STCF,15.9
8,TLCC,2.25
9,KYPY,≤ 0.25
10,FIKI,≤ 0.25
11,YVGY,≤ 0.25
12,QNGY,≤ 0.25
13,LRAQ,≤ 0.25
14,AGRD,≤ 0.25
15,KQNY,≤ 0.25
16,SWLA,0.478
17,YSLQ,6.56
18,RHTR,≤ 0.25
19,LQKQ,≤ 0.25
20,NTWA,≤ 0.25
21,FPGT,≤ 0.25
22,FRMF,≤ 0.25
23,HLGS,≤ 0.25
24,TYEP,≤ 0.25

row,Variant,enrichment ratio
1,LAMN,5.37
2,EGNG,≤ 0.25
3,FTWF,≤ 0.25
4,DCKY,≤ 0.25
5,SDRT,2.13
6,LHCL,≤ 0.25
7,WVWM,≤ 0.25
8,LFCM,≤ 0.25
9,VCPE,≤ 0.25
10,DNVY,≤ 0.25
11,RCST,≤ 0.25
12,ANIM,4.25
13,DWPF,≤ 0.25
14,YYES,≤ 0.25
15,HEHG,≤ 0.25
16,YMSG,≤ 0.25
17,IVFI,≤ 0.25
18,LALS,0.926
19,YPTD,≤ 0.25
20,EDFL,≤ 0.25
21,VHEA,≤ 0.25
22,HWVR,≤ 0.25
23,WQIP,≤ 0.25
24,LERP,≤ 0.25

row,Variant,enrichment ratio
1,VQCH,≤ 0.25
2,GNMC,≤ 0.25
3,CQSL,≤ 0.25
4,GCKN,≤ 0.25
5,TAIF,≤ 0.25
6,LILM,≤ 0.25
7,MDQM,≤ 0.25
8,FWFR,≤ 0.25
9,GVWI,≤ 0.25
10,TCLQ,6.47
11,KMRY,≤ 0.25
12,SKEA,≤ 0.25
13,WICS,≤ 0.25
14,VSIL,≤ 0.25
15,DEAN,≤ 0.25
16,QKLC,≤ 0.25
17,MTMA,≤ 0.25
18,SKTP,≤ 0.25
19,DHLL,≤ 0.25
20,NCWR,≤ 0.25
21,TKYW,≤ 0.25
22,MWFK,≤ 0.25
23,RPFS,≤ 0.25
24,SLFH,≤ 0.25

row,Variant,enrichment ratio
1,QPVG,≤ 0.25
2,NIHF,≤ 0.25
3,PVMK,≤ 0.25
4,FDPF,≤ 0.25
5,RCGT,≤ 0.25
6,EQVI,≤ 0.25
7,MSSI,7.12
8,ALIK,≤ 0.25
9,TMLC,13.8
10,RGRG,≤ 0.25
11,FAAV,≤ 0.25
12,SCLH,8.47
13,GIIK,≤ 0.25
14,NMPS,≤ 0.25
15,HGKR,≤ 0.25
16,HWVW,≤ 0.25
17,LHPY,≤ 0.25
18,FCWI,≤ 0.25
19,TFFQ,≤ 0.25
20,IHCD,≤ 0.25
21,RNNW,≤ 0.25
22,THII,≤ 0.25
23,MCPS,≤ 0.25
24,YKTC,≤ 0.25

row,Variant,enrichment ratio
1,RIVS,≤ 0.25
2,DLMR,≤ 0.25
3,MLAY,0.299
4,EHWS,≤ 0.25
5,YWVY,≤ 0.25
6,ANNF,12.9
7,YYWM,≤ 0.25
8,KTMF,≤ 0.25
9,TFYE,≤ 0.25
10,LNKC,≤ 0.25
11,RCYK,≤ 0.25
12,RKSV,≤ 0.25
13,FGAL,≤ 0.25
14,MQPV,≤ 0.25
15,RFCS,≤ 0.25
16,APPN,≤ 0.25
17,NECA,≤ 0.25
18,HEHW,≤ 0.25
19,PVHA,≤ 0.25
20,WYPQ,≤ 0.25
21,TIAQ,5.43
22,DAIQ,≤ 0.25
23,HPMC,≤ 0.25
24,FVGV,≤ 0.25

row,Variant,enrichment ratio
1,LLFC,≤ 0.25
2,QHMC,≤ 0.25
3,WAFI,≤ 0.25
4,GQGP,≤ 0.25
5,YMHT,≤ 0.25
6,AVST,3.29
7,VNVN,≤ 0.25
8,FQAR,≤ 0.25
9,DGDC,≤ 0.25
10,RKQP,≤ 0.25
11,GAKL,≤ 0.25
12,VHYI,≤ 0.25
13,GNCR,≤ 0.25
14,SPAA,≤ 0.25
15,EVIN,≤ 0.25
16,MHGM,0.817
17,GHNH,≤ 0.25
18,WYFF,≤ 0.25
19,RTMQ,≤ 0.25
20,ARKT,≤ 0.25
21,KHPL,≤ 0.25
22,KSRM,≤ 0.25
23,SWNF,≤ 0.25
24,QYHN,≤ 0.25

row,Variant,enrichment ratio
1,GKIM,8.59
2,PNYF,≤ 0.25
3,NCFR,≤ 0.25
4,IMYC,≤ 0.25
5,NRNS,≤ 0.25
6,LRTF,≤ 0.25
7,YCLE,1.87
8,NCFE,≤ 0.25
9,AKIG,0.984
10,MVTG,≤ 0.25
11,YPYT,≤ 0.25
12,AEAA,12.1
13,FNRC,≤ 0.25
14,RPHA,≤ 0.25
15,WNCW,≤ 0.25
16,GRIV,≤ 0.25
17,LISL,≤ 0.25
18,MNMP,≤ 0.25
19,YSSS,≤ 0.25
20,RHMR,≤ 0.25
21,AKNV,≤ 0.25
22,FVFA,≤ 0.25
23,IGHN,≤ 0.25
24,YTND,≤ 0.25

row,Variant,enrichment ratio
1,RAKW,≤ 0.25
2,DIKW,≤ 0.25
3,RDGV,≤ 0.25
4,STDA,≤ 0.25
5,NRIY,≤ 0.25
6,GFCQ,≤ 0.25
7,VITH,≤ 0.25
8,HMVP,≤ 0.25
9,NLAK,≤ 0.25
10,VQSG,≤ 0.25
11,EGGM,≤ 0.25
12,MSCE,≤ 0.25
13,RFCM,≤ 0.25
14,NQMF,≤ 0.25
15,KPVK,≤ 0.25
16,KDGQ,≤ 0.25
17,IPSF,≤ 0.25
18,WAPM,≤ 0.25
19,RLMS,≤ 0.25
20,SVQW,≤ 0.25
21,SENV,3.86
22,HSVL,3.66
23,LWCM,≤ 0.25
24,WALY,≤ 0.25

row,Variant,enrichment ratio
1,MVAT,≤ 0.25
2,VINC,≤ 0.25
3,PINE,≤ 0.25
4,TFCN,≤ 0.25
5,ASDL,≤ 0.25
6,MNWV,3.05
7,HATF,≤ 0.25
8,KDKY,≤ 0.25
9,RSCN,≤ 0.25
10,VPWF,≤ 0.25
11,ANST,3.81
12,SSDP,≤ 0.25
13,DAFK,≤ 0.25
14,NHKM,≤ 0.25
15,RQKD,≤ 0.25
16,ENSL,≤ 0.25
17,EMCC,≤ 0.25
18,DSGC,≤ 0.25
19,LENS,0.363
20,KFCD,≤ 0.25
21,YYNW,≤ 0.25
22,YIMG,0.348
23,HKQH,≤ 0.25
24,FARE,≤ 0.25

row,Variant,enrichment ratio
1,KGSQ,≤ 0.25
2,VFDH,≤ 0.25
3,APNW,≤ 0.25
4,LGLN,≤ 0.25
5,FAHK,≤ 0.25
6,GPVL,≤ 0.25
7,FDRQ,≤ 0.25
8,YCME,7.54
9,YGLA,12.8
10,HQQD,≤ 0.25
11,DPSN,≤ 0.25
12,FPWV,≤ 0.25
13,FECW,≤ 0.25
14,SSIV,14.2
15,KGYC,≤ 0.25
16,NTCV,≤ 0.25
17,WDRI,≤ 0.25
18,GGEY,≤ 0.25
19,VVPS,≤ 0.25
20,NFIS,≤ 0.25
21,IDGC,≤ 0.25
22,PTKT,≤ 0.25
23,AEWI,≤ 0.25
24,MNIG,≤ 0.25

row,Variant,enrichment ratio
1,VDMN,≤ 0.25
2,RPKK,≤ 0.25
3,IVCG,≤ 0.25
4,VSYK,≤ 0.25
5,LQIA,≤ 0.25
6,QDDS,≤ 0.25
7,ESDV,≤ 0.25
8,EQHS,≤ 0.25
9,TMAH,1.31
10,GKVG,≤ 0.25
11,ADRV,≤ 0.25
12,VHWA,≤ 0.25
13,HWRE,≤ 0.25
14,LGTD,≤ 0.25
15,VGIE,≤ 0.25
16,WGIL,≤ 0.25
17,PGFQ,≤ 0.25
18,QYYR,≤ 0.25
19,VHFP,≤ 0.25
20,YVVI,≤ 0.25
21,RSPA,≤ 0.25
22,MTVC,≤ 0.25
23,QDAS,≤ 0.25
24,PGVG,≤ 0.25

row,Variant,enrichment ratio
1,SWFM,≤ 0.25
2,KKLF,≤ 0.25
3,NPNM,≤ 0.25
4,DDEL,≤ 0.25
5,KNRR,≤ 0.25
6,QRSR,≤ 0.25
7,PNTR,≤ 0.25
8,FNHQ,≤ 0.25
9,NKTV,≤ 0.25
10,GYYR,≤ 0.25
11,VAEN,≤ 0.25
12,GTYQ,0.253
13,QTNR,≤ 0.25
14,PWDE,≤ 0.25
15,SQAV,6.43
16,HPDY,≤ 0.25
17,YPSV,≤ 0.25
18,KQGL,≤ 0.25
